Results published in paper PMC4336329 (PLoS ONE, 2015).
Hit rate of the full screen: of about 310,000 compounds, about 2,200 (0.71%) showed an effect of 50% or more. The effect is printed as a negative number. Some of the results follow.

The molecules below were run against human ether-à-go-go-related gene (hERG) potassium channel (human, UniProt Q12809) (assay: primary screen, population patch clamp on CHO cells stably expressing hERG).
Sequence of human ether-à-go-go-related gene (hERG) potassium channel (Q12809 whole entry, looked up): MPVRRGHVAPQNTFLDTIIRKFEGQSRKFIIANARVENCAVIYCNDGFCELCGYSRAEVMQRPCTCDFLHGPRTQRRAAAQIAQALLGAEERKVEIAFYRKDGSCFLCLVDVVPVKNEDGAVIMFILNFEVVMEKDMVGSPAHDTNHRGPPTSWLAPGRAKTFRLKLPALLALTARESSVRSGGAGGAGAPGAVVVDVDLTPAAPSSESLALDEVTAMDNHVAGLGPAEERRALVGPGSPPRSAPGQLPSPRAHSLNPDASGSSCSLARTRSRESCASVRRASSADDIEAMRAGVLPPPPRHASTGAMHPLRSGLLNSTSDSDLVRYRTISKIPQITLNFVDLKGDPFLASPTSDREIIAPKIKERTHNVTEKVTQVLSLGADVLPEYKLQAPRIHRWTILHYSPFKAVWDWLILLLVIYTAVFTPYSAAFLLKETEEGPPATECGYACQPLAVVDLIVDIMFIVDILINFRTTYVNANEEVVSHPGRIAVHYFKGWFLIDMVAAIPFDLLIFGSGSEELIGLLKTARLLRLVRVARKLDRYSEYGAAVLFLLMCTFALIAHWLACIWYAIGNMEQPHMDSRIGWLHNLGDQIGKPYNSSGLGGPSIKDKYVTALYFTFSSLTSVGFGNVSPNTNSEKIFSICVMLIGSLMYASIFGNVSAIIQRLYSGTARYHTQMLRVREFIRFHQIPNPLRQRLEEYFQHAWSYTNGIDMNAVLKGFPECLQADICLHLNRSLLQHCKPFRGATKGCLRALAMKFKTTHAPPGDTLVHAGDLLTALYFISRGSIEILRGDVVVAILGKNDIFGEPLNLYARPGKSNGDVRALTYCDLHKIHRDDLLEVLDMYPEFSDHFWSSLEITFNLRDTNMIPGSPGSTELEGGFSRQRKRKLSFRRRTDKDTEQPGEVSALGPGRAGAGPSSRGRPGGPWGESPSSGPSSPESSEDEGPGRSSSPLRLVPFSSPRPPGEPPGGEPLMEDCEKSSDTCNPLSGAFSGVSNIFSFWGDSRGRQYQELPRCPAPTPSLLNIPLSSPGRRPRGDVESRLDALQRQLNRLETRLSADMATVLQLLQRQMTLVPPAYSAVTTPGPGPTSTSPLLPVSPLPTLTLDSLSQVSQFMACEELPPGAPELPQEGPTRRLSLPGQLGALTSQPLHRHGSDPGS

| SMILES | hERG current change (%, negative = inhibition) at 1uM |
| --- | --- |
| O=C(NCCN1CCOCC1)c1ccncc1 | 8.53% |
| CNc1nc2c(Cl)cc(Cl)cc2s1 | 11.7% |
| COC(=O)c1nn(-c2ccccc2)c(Cl)c1/C=N/OCc1c(Cl)cccc1Cl | 10.3% |
| CCOC(=O)/C(C#N)=C\N(C)C | 25.7% |
| OCCN1CCN(Cc2cccc(Oc3ccc(Cl)cc3)c2)CC1 | 1.11% |
| CCN(CC)Cc1c(C(=O)N/N=C/c2cccc(OCc3ccc(F)cc3)c2)nnn1-c1nonc1N | 13.4% |
| CN(C(=O)COC(=O)CNC(=O)c1ccccc1Cl)c1ccccc1 | 15.6% |
| O=C(O)COCC(=O)Nc1ccc(OCCc2ccccc2)cc1 | 11.9% |
| Cc1ccc(-n2c(-c3ccncc3)nnc2-c2cccs2)cc1 | 7.39% |
| CCN(Cc1ccccc1)C(=O)c1ccc(C(=O)N(CC)Cc2ccccc2)cc1 | 8.17% |
| OCCCNc1nccc(-c2cc(Nc3cccc(Cl)c3)ncn2)n1 | 12.8% |
| COC(=O)CC1C(=O)NC(C)=C1C(=O)OC (stereo not shown) | 14.5% |
| O=C(CSc1nnc(-c2cccs2)o1)c1cccs1 | 8.45% |
| CCN(CC(=O)Nc1c(F)cccc1F)C(=O)c1cccc(S(=O)(=O)N2CCc3ccccc3C2)c1 | -4.43% |
| CCOc1ccc(C(=O)N2CCC(C(=O)c3ccc4c(c3)OCCO4)CC2)cc1 | -61.5% |
| O=C(Nc1ccc(S(=O)(=O)N2CCCC2)cc1)N1c2ccccc2Sc2ccccc21 | 30.8% |
| N#Cc1c2c(c(NCc3ccco3)n3c1nc1ccccc13)CCC2 | 6.2% |
| CCOC(=O)C1CCCN(S(=O)(=O)c2cc(Br)cc3c2N(C(=O)C2CC2)CC3)C1 (stereo not shown) | 20.6% |
| Cc1nn(CC(C)C)c(Cl)c1C(=O)O | 5.82% |
| CC(=O)c1ccc(C(=O)NC2CCCN(Cc3ccccc3F)C2)cc1 (stereo not shown) | 21% |

| SMILES | hERG current change (%, negative = inhibition) at 1uM |
| --- | --- |
| O=C(CSc1ccccc1)NCC1(N2CCCCC2)CCCCC1 | 17% |
| O=C(NCc1ccccn1)Nc1ccccc1C(F)(F)F | 13% |
| Cc1cccc(N2CN=C3SCC(=O)N3C2)c1 | 12.8% |
| O=C1Nc2ccccc2OC1CC(=O)N1CCCC1 (stereo not shown) | 1.85% |
| O=c1[nH]c(=O)c2cc([N+](=O)[O-])cc([N+](=O)[O-])c2[nH]1 | 11.1% |
| CN(C)c1ccc(/C=N/NC(=O)c2cc(=O)[nH]c3ccccc23)cc1 | 12.4% |
| CN(CCc1ccccn1)C(=O)CCC1CCCN(C(=O)c2cscn2)C1 (stereo not shown) | 2.11% |
| CCN(Cc1ccccc1)C(=O)CN1C(=O)NC2(CC(C)CC(C)(C)C2)C1=O (stereo not shown) | 2.29% |
| COc1ccccc1OCC(=O)Nc1sc2c(c1C(=O)NCC1CCCO1)CCC2 (stereo not shown) | 13.6% |
| Cc1nn(C)c(C)c1NC(=O)/C(C#N)=C\N(C)C | -0.397% |
| CN1CCN(CCCNc2c(C=O)c(=O)[nH]c3ccccc23)CC1 | 16.7% |
| Cc1ccc2nc3c(cc(C(=O)NCc4ccco4)c(=N)n3Cc3ccco3)c(=O)n2c1 | -86.5% |
| CN(C)/C=C1\C(=O)N(c2ccc(F)cc2F)C(c2cccnc2)S1(=O)=O (stereo not shown) | 11.2% |
| Cn1c(C(=O)N2CCCC(C(=O)O)C2)cc2sccc21 (stereo not shown) | 15.5% |
| C=CCN1C(=O)/C(=C2/Sc3ccc(OC)cc3N2C)SC1=Nc1cccc(O)c1 | 17.3% |
| COc1ccc(-c2nc3cccc(C)n3c2NCc2ccco2)cc1OC | 5.43% |
| Cc1ccc2c(c1)-c1c(cnn1CC(=O)O)CO2 | 17.2% |
| Cc1cccc(C)c1-n1c(C)nn(-c2ncc(C(F)(F)F)cc2Cl)c1=O | 1.95% |
| Cc1ccc(-c2nnn(CC(=O)N(Cc3ccco3)C(C(=O)NC(C)(C)C)c3ccc(C)o3)n2)o1 (stereo not shown) | 19% |
| CCOc1cc(CN2CCCC(N3CCN(c4ccc(F)cc4)CC3)C2)ccc1OC (stereo not shown) | -6.32% |

| SMILES | hERG current change (%, negative = inhibition) at 1uM |
| --- | --- |
| CCNc1c2c3c(cccc3n(C)c1=O)C(=O)c1ccccc1-2 | 7.38% |
| Cc1cccc(C(=O)O/N=C2\CCSc3ccc(C)cc32)c1 | 9.95% |
| CCOCCCNCc1cc(Cl)ccc1OCC.Cl | 0.597% |
| COC(=O)c1ccc(COC(=O)CNC(=O)c2ccc(C)s2)cc1 | 11.4% |
| O=C(Nc1ccc([N+](=O)[O-])cn1)c1ccc(Br)o1 | 13.3% |
| O=C(Nc1ncccn1)C1c2ccccc2Oc2ccccc21 | -4.98% |
| COc1ccc(OCC(=O)NNC(=O)Cc2coc3cc(OC)ccc23)cc1 | 10.9% |
| CCOC(=O)c1c(/N=C/c2ccc(C)cc2O)sc2c1CCN(C)C2 | 2.32% |
| C(=NC12CN3CN(CN(C3)C1)C2)c1ccc2c(c1)OCO2 | -1.22% |
| CCC(=O)N1CCc2cc(S(=O)(=O)CCC(=O)Nc3cccc(F)c3)ccc21 | 11% |
| CN(c1ccccc1)S(=O)(=O)c1ccc(NC(=S)Nc2ccccc2)cc1 | -6.83% |
| CCOC(=O)c1c(C)[nH]c(O)c1C=Nc1ccc(C(F)(F)F)cc1 | 14.2% |
| O=C(COc1cccnc1[N+](=O)[O-])NCc1ccccc1 | 8.88% |
| CCCCN(c1ccccc1)S(=O)(=O)c1ccc2c(c1)CCN2C(=O)CCC(=O)O | 14.7% |
| COc1ccc(/C=C(\CC(=O)O)c2nc3ccccc3o2)cc1 | 13.6% |
| COc1ccc(OC)c2c1sc(=NC(=O)c1ccco1)n2C | 13.1% |
| CC(NC(=O)c1ccccc1)c1nc2ccccc2n1Cc1ccc(C#N)cc1 (stereo not shown) | -35.6% |
| C=CCNC(=O)CCCC(=O)NCC=C | 12.4% |
